PubChem BioAssay AID1466 (National Center for Advancing Translational Sciences (NCATS), 2008)
Out of some 200,000 compounds screened, about 10 (0.005%) were called active. This list was built around the results that the source calls inconclusive (neither active nor inactive); the mix of calls is not that of the screen. Calls come from the whole dose curve; as a rule, active = well fitted inhibition curve with a large enough effect; inconclusive = small, poorly fitted or top-dose-only effect, or effect the other way, or another doubt; inactive = no such curve, though single readings can be large or run the other way. Potencies beside an inconclusive call are fits to weak or partial responses and may not hold up.

Target: Lysosomal alpha-glucosidase (Homo sapiens) (UniProt P10253)
Assay: qHTS Assay for Inhibitors of Human alpha-Glucosidase as a Potential Chaperone Treatment of Pompe Disease;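 for activity change, negative = inhibition: plate controls were uninhibited enzyme wells for no effect and no-enzyme background for full effect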
Details: purified human GAA, 4-MU-alpha-glucoside fluorescence; activity change, negative = inhibition: at 76.9 µM (top of the series) unless noted
Method in brief: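 Compounds are titrated up to 77 uM against 4 nM human enzyme. Substrate 4-methylumbelliferyl-alpha-D-pyranoside (400 uM) reacts 20 min at room temperature in pH 5.0 buffer; liberated 4-methylumbelliferone is read at 440 nm.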
Potency is the fitted concentration of half-maximal effect; tags give direction and shape of the fitted curve.

Potency, inconclusive:
CCn1c(SCC(=O)NCCOC)nc2sc3c(c2c1=O)CCCC3 22.4 µM [inhibitor, partial curve, poor fit], CCOC(=O)CC1(C)SC(NC(C)=O)=NN1C(C)=O (centres undefined) 44.7 µM [inhibitor, single point], COc1ccccc1CN1CCN(C(CC(C)C)c2nnnn2Cc2cccs2)CC1 (centres undefined) 39.8 µM [inhibitor, partial curve], C/C(N)=C(/C#N)C(=O)CSc1cc(C)c2ccccc2n1 56.2 µM [inhibitor, single point], COc1ccc(N(CC(=O)Nc2ccc(S(=O)(=O)N3CCOCC3)cc2)S(=O)(=O)c2ccc(F)cc2)cc1 28.2 µM [inhibitor, single point], CCOC(=O)c1cc(C(=O)OCC)c2ccccn2c1=O 35.5 µM [activator, partial curve], CC(C)C(=O)Nc1ccc(NC(=O)c2ccc([N+](=O)[O-])cc2Cl)cc1 50.1 µM [inhibitor, single point], Cc1sc2nc(CN3CCCC3)nc(N3CCN(C(=O)c4ccco4)CC3)c2c1C 11.2 µM [inhibitor, single point], CC(=O)CCS(=O)(=O)c1ccc(Oc2ccc(S(=O)(=O)CCC(C)=O)cc2)cc1 1.12 µM [inhibitor, full curve, poor fit], CN1CCc2c(sc3c2C(=O)NC(c2cccs2)N3)C1 (centres undefined) 39.8 µM [activator, single point], Cc1ccc(S(=O)(=O)NC(C(=O)Oc2ccc3ccc(=O)oc3c2)c2ccccc2)cc1 (centres undefined) 35.5 µM [activator, partial curve], Cc1ccc(S(=O)(=O)N2CCN(c3ccc4nnc(-c5ccccc5)n4n3)CC2)cc1 50.1 µM [inhibitor, single point], Cc1c(Br)c([N+](=O)[O-])nn1CC(=O)Nc1sc2c(c1C(=O)OC(C)C)CCCC2 15.8 µM [inhibitor, partial curve, poor fit], O=C(NCc1ccccc1C(F)(F)F)C12CN(Cc3ccccc3)CC1C(c1ccc([N+](=O)[O-])cc1)=NO2 (centres undefined) 8.91 µM [inhibitor, partial curve, poor fit], CCN1CCc2c(C#N)c(NCc3ccccc3)nc(NCCO)c2C1 17.8 µM [activator, partial curve], O=c1oc2c(CN3CCOCC3)c(O)c(Cl)cc2c2c1CCCC2 31.6 µM [activator, partial curve], Cc1ccc(S(=O)(=O)N2CCN(CC(=O)N/N=C\C(Cl)=C\c3ccccc3)CC2)cc1 31.6 µM [inhibitor, partial curve], Cc1ccc(/C=C/C2=Cc3c(sc(NC(=O)CSc4n[nH]c(N)n4)c3C#N)C(C)(C)C2)o1 1 µM [inhibitor, full curve, poor fit], Cc1cc(N2CCCCC2)nc2ccccc12 17.8 µM [activator, partial curve], Cc1cc(C)c2nc(SCC(=O)N(C)C3CCS(=O)(=O)C3)cc(C)c2c1 (centres undefined) 50.1 µM [inhibitor, single point], CC(=O)Nc1ccc2c(c1)nc1n2CCN(C(C)c2ccccc2)C1 (centres undefined) 50.1 µM [activator, partial curve], Cc1ccc(S(=O)(=O)N(Cc2ccccc2)c2ccccc2C(=O)Nc2ccccc2C(=O)NCc2ccco2)cc1 2 µM [inhibitor, partial curve], Cc1[nH]c(=O)c(C#N)cc1-c1ccccc1 20 µM [inhibitor, partial curve, poor fit], CN1CC=C2C(C#N)=C(N)C(C#N)(C#N)[C@H](c3cccc(Cl)c3)C2C1 (some centres undefined) 39.8 µM [activator, partial curve], CC(=O)c1ccc(OCC(O)CN2CCN(Cc3ccc4c(c3)OCO4)CC2)cc1 (centres undefined) 0.158 µM [activator, full curve, poor fit], O=C1CN(C(=O)COC(=O)c2oc3ccccc3c2COc2ccccc2)c2ccccc2N1 50.1 µM [inhibitor, single point], N#Cc1c(N)nc(SCC(=O)NCCc2ccccc2)c(C#N)c1-c1cccs1 50.1 µM [activator, single point], CN(C)c1ccc(/C=N/NC(=O)CCCO)cc1 35.5 µM [activator, partial curve], O=C(CSC1=NCCS1)Nc1nc2c(s1)CCCC2 39.8 µM [inhibitor, partial curve], Cc1onc(-c2ccccc2Cl)c1C(=O)Nc1nnc(-c2ccc(Cl)cc2Cl)s1 50.1 µM [activator, single point], CCOc1ccccc1NC(=O)NCc1ccc(F)cc1 11.2 µM [inhibitor, single point], Cc1csc(N(C(=O)c2cccc(S(=O)(=O)N3CCCC3)c2)c2ccccc2)n1 31.6 µM [inhibitor, single point], CN(Cc1nc(C(c2ccccc2)c2ccccc2)no1)CC1COCCO1 (centres undefined) 44.7 µM [activator, partial curve], CCCc1cc(C(=O)N2CCC(N3CCC(C(=O)NC(C)C)CC3)CC2)n(C)n1 6.31 µM [inhibitor, single point], CCc1ccc(NC2=CC(=O)CC(c3ccco3)C2)cc1 (centres undefined) 56.2 µM [inhibitor, partial curve, poor fit], Cc1cc2cc3c(cc2nc1SCC(=O)Nc1ccccc1)CCC3 11.2 µM [inhibitor, single point], O=C(C1CCCN(S(=O)(=O)c2cccc3nsnc23)C1)N1CCCCCC1 (centres undefined) 44.7 µM [inhibitor, single point], Cc1cc(C)nc(SCc2nnc(SCC(=O)Nc3nccs3)n2Cc2ccco2)n1 8.91 µM [inhibitor, partial curve], Cc1ccc(NC(=O)c2sc(=S)n(-c3cc(C)ccc3F)c2N)cc1 5.01 µM [inhibitor, full curve, poor fit], CCc1ccc(NC2CC(=O)N(c3ccc(OC)cc3OC)C2=O)cc1 (centres undefined) 6.31 µM [inhibitor, single point], COC(=O)c1ccc(Cn2nc(C)cc2C)cc1 12.6 µM [inhibitor, single point], COC(=O)C1CCN(C(=O)c2cc3c(=O)n4cccc(C)c4nc3n2Cc2ccccc2)CC1 22.4 µM [activator, partial curve]

Activity change, negative = inhibition, inconclusive:
CCN(CC)CCN(Cc1cc2cc(C)c(C)cc2[nH]c1=O)C(=S)NCc1ccco1 18.3% [activator], O=C(N/N=C/C(Br)=C/c1ccccc1)c1cc(-c2ccco2)[nH]n1 12% [activator], CC1CCCN(C(=O)C(C)Sc2nc(-c3ccccc3)cc(C(F)(F)F)n2)C1 (centres undefined) -17.7% [inhibitor], CC(/C=C/c1ccccc1)=N\NC(=O)CCc1ccccc1 17.5% [activator], COC(=O)Cc1cc(=O)oc2c(C)c(O)ccc12 113% [activator], CCN(CC)CCCNC(=S)N(Cc1cccnc1)Cc1cc2cc(C)cc(C)c2[nH]c1=O 14.3% [activator], O=c1[nH]c(/C=C/c2cccc3ccccc23)nc2ccccc12 17% [activator], O=C(COC(=O)c1c[nH]c(=O)[nH]c1=O)NCc1ccccc1 -18.2% [inhibitor], O=C(Nc1ccccc1C(=O)NCc1cccnc1)c1cccc([N+](=O)[O-])c1 17.6% [activator], Cc1ccccc1Cn1c(C(=O)OC(C)C)cc2c1ccn2C 15% [activator], Cn1nc([N+](=O)[O-])nc1Sc1nnnn1-c1ccc(C(=O)O)cc1 14.2% [activator], O=C(c1ccc2c(=O)n(-c3ccccc3)c(=S)[nH]c2c1)N1CCCCC1 -20.3% [inhibitor], CCOc1cc(NC(=S)NCCOC)c(OCC)cc1NC(=O)c1ccco1 10.1% [activator], CCOCCCNC(=S)Nc1ccc(S(N)(=O)=O)cc1 15.5% [activator], COc1ccc(CCNC(=O)Cn2cnc3c2c(=O)n(C)c(=O)n3C)cc1OC 19.6% [activator], COc1ccccc1-n1c(=O)c2c3c(sc2n2c(=S)[nH]nc12)CCC3 21% [activator], CC(C)c1ccc(-n2nc3ccc(N)cc3n2)cc1 44.8% [activator], COc1ccc(-c2[nH]ncc2CN2CCN(c3ccccn3)CC2)c(OC)c1 8.15% [activator]

Activity change, negative = inhibition, inactive:
CC(NC(=O)Nc1ccccc1O)(C(F)(F)F)C(F)(F)F -11.9%, Cc1ccccc1Nc1c(-c2ccccn2)nc2ccccn12 -1.96%, Oc1ccc(Cl)cc1N=Cc1sc2ccccc2c1Cl 5.29%, FC(F)(F)c1ccnc(Oc2ccc(C3=NCCS3)cc2)c1 -3.74%
